Measured values from ChEMBL document CHEMBL1201862, “PubChem BioAssay data set” (2004).

The compounds below were run on NCI-H322M (assay: NCI anticancer screen, dose series, 48 h).
In the case of C=CCC1NCCC2=C1C(S(=O)(=O)c1ccc(C)cc1)c1ccccc12 (stereo unspecified), the GI50 is reported as inactive: 12.8 µM. In the case of CCOC(=O)CNC1=NNS(=O)(=O)c2ccccc21, the GI50 is reported as inactive: 61.2 µM. COc1cccc2c1OC1c3ccccc3OCC1C2 (stereo unspecified) was tested, and the GI50 was inactive: > 100 µM. With Cc1c(CNc2ccc(Cl)c(C(=O)NC(CC(=O)O)C(=O)O)c2)ccc2nc(N)nc(N)c12 (stereo unspecified) the GI50 was active: 0.466 µM. With C=C/C=C(\NC(=O)C(Cl)(Cl)Cl)[Si](C)(C)C the GI50 was inactive: > 100 µM. In the case of CC(=O)Nc1ccc(-c2nc3cc(Cl)ccc3o2)cc1, the GI50 is reported as inactive: > 50 µM. With N#CCc1c(-c2ccccc2)n(S(=O)(=O)c2ccccc2)c2ccccc12 the GI50 was inactive: > 100 µM. For O=[N+]([O-])c1ccc(/C=C(/c2ccc([N+](=O)[O-])o2)S(=O)(=O)c2ccccc2)cc1, the GI50 was inactive: > 100 µM. O=C(NC(C(F)(F)F)(C(F)(F)F)P(=O)(Cc1ccccc1)Cc1ccccc1)C(C(F)(F)F)C(F)(F)F was tested, and the GI50 was inactive: 31 µM. With CCOC(=O)C(=Cc1cccnc1C)C(=O)OCC the GI50 was inactive: 10.2 µM. With O=C1C(=C(I)I)c2ccccc2-c2ccccc21 the GI50 was inactive: 12.3 µM. In the case of CCCCc1ccc(Nc2nc(Cl)c3ccn(C4CC(Oc5ccc(C)cc5)C(COc5ccc(C)cc5)O4)c3n2)cc1 (stereo unspecified), the GI50 is reported as inactive: > 46.5 µM. In the case of CCOC(=O)C(Oc1ccc(OC)c2c1C(=O)CCC2)c1ccccc1 (stereo unspecified), the GI50 is reported as inactive: > 100 µM. For O=C(Nc1ccc(Cl)c(C(F)(F)F)c1)C(=O)c1c(O)c2ccccc2oc1=O, the GI50 was inactive: > 100 µM. With CC(C)(C)c1ccc2c(c1)S(=O)(=O)Nc1cccc(c1)NS(=O)(=O)c1cc(C(C)(C)C)ccc1OCCOCCO2 the GI50 was inactive: > 100 µM. With O=c1oc2ccccc2c(-c2ccc(O)cc2)c1Oc1ccccc1 the GI50 was inactive: 17 µM. With CC(=O)OC(=C(C#N)C#N)c1nccnc1C(=O)O the GI50 was inactive: > 100 µM. COc1ccc2c(c1)/c(=C/C#N)c1c3ccccc3[n+](C)n21 was tested, and the GI50 was inactive: 8.77 µM. With Cc1c(/C=N\NC(=S)N2CCN(C(=S)N/N=C\c3c(C)n(C)n(-c4ccccc4)c3=O)CC2)c(=O)n(-c2ccccc2)n1C the GI50 was inactive: 54.7 µM. With O=C1CC(c2ccccc2)[S+]([O-])c2ccccc2N1 (stereo unspecified) the GI50 was inactive: > 100 µM. Cc1ccc(S(=O)(=O)n2c(-c3ccccc3)c(-c3ccccc3)c3ccccc32)cc1 was tested, and the GI50 was inactive: > 100 µM. In the case of COC(=O)C1(NC(=O)C(CC(=O)OCc2ccccc2)NC(=O)OC(C)(C)C)CC1 (stereo unspecified) (Boc-[ξD](OBn)-[Ac3c]-OMe), the GI50 is reported as inactive: > 100 µM. CC(C)(C)C(=O)CC(=O)C(C)(C)C.CC(C)(C)C(=O)CC(=O)C(C)(C)C.[SiH4] was tested, and the GI50 was inactive: 2.21 µM. In the case of Cc1ccc(S(=O)(=O)C2=c3nc4ccccc4cc3=C3C(=O)c4ccccc4C(=O)C32)cc1 (stereo unspecified), the GI50 is reported as inactive: 99.3 µM. In the case of C=C[C@H]1C=Cc2c(OC)cccc2[C@@H]1COP1(=S)NC(C)C(c2ccccc2)O1 (stereo partly specified), the GI50 is reported as inactive: > 100 µM. With N#CC(C(=O)c1ccccc1F)c1nc2cc(C(F)(F)F)ccc2s1 (stereo unspecified) the GI50 was inactive: 21.3 µM. With CC1(C)CN=C(c2ccc3ccccc3c2O)N1 the GI50 was inactive: > 100 µM. Cc1cc(=O)c2ccccc2n1CCCCCCCCCCn1c(C)cc(=O)c2ccccc21 was tested, and the GI50 was inactive: 15.3 µM. With Brc1ccc(C2=NCSC(c3ccc(Br)cc3)=N2)cc1 the GI50 was inactive: 26.2 µM. For COC1(OC)c2no[n+]([O-])c2C(OC)(OC)c2c1no[n+]2[O-], the GI50 was inactive: 16.6 µM. In the case of NC(N)=NC(P(=O)(O)O)P(=O)(O)O, the GI50 is reported as inactive: > 100 µM. For COC(=O)[C@@]12C3=NO[C@]1(C(=O)OC)C(O[Si](C)(C)C(C)(C)C)[C@@H](OC(C)=O)[C@@H](OC(C)=O)[C@@H]2[C@@H](OCc1ccccc1)CC3 (stereo partly specified), the GI50 was inactive: > 100 µM. For NC(CCP(=O)(O)O)C(=O)O (stereo unspecified), the GI50 was inactive: > 100 µM. For O=C(/C=C\c1ccccc1)Oc1ccc(/C=C2\CCC/C(=C\c3ccc(OC(=O)/C=C\c4ccccc4)cc3)C2=O)cc1, the GI50 was inactive: > 100 µM. With CSC(SC)=C1C(=O)N(c2ccccc2)N=C1C the GI50 was inactive: 26.7 µM. In the case of O=c1oc2ccccc2cc1P(=O)(O)O, the GI50 is reported as inactive: > 100 µM. With C[C@]12CC/C(=N\OC(=O)Nc3ccccc3)C=C1CC[C@@H]1C2CC[C@@]2(C)C1CC[C@@H]2OC(=O)Nc1ccccc1 (stereo partly specified) the GI50 was inactive: > 100 µM. In the case of CN(C)c1cc2ccccc2oc1=O, the GI50 is reported as inactive: > 100 µM. For CC(=O)OC1CCC2(C)C(=CCC3C4CCC5(OC6CC(C)CN(C(C)=O)C6C5C)C(C)=C4C(=O)C32)C1 (stereo unspecified), the GI50 was inactive: 20.1 µM. For C/C(N)=C/C(=O)c1[nH]c(C(=O)O)cc1C1CCN(Cc2ccccc2)C1=O (stereo unspecified), the GI50 was inactive: 23.1 µM. With O=C(NO)c1ccc(OCc2ccccc2)cc1 the GI50 was inactive: 22.8 µM. In the case of CC(=O)O[C@H]1CC[C@H]2[C@@H]3CCC4=CC(=O)C=C[C@]4(O)[C@H]3CC[C@]12C, the GI50 is reported as inactive: > 68.4 µM. CCc1cccc(C(C)CC)c1NC(=O)CC1C(=O)Nc2ccccc2S1(=O)=O (stereo unspecified) was tested, and the GI50 was inactive: 21.3 µM. For CCCCCCCCCCCCOCC1(COCCCCCCCCCCCC)COC(c2ccc(N)cc2)OC1, the GI50 was inactive: > 100 µM. With COc1cc(Cl)c(CC(=O)c2c[nH]c3ccccc23)cc1OC the GI50 was inactive: > 100 µM. O=[N+]([O-])c1nccn1CC(O)c1ccccc1 (stereo unspecified) was tested, and the GI50 was inactive: > 100 µM. In the case of C=CCNC1=C2C[C@@H](C)C[C@H](OC)[C@H](O)[C@@H](C)/C=C(\C)[C@H](OC(N)=O)[C@@H](OC)/C=C\C=C(/C)C(=O)NC(=CC1=O)C2=O [TANESPIMYCIN], the GI50 is reported as active: 0.0977 µM. In the case of N#Cc1ccc(OCc2nc3cc(C(F)(F)F)ccc3nc2-c2ccccc2)cc1, the GI50 is reported as inactive: > 100 µM. With O=C1CSC2=NCC3(NN12)c1ccccc1-c1ccccc13 the GI50 was inactive: > 10 µM. For N#Cc1c(N)nc2[nH]nc(N)c2c1-c1ccc(Cl)cc1, the GI50 was inactive: 11 µM. In the case of CCOC(=O)C1=CN(C(=O)c2ccccc2)CCC1Cc1ccccc1 (stereo unspecified), the GI50 is reported as inactive: 43 µM. CC1OC(O[C@H]2C3C=CO[C@@H](OC4OC(CO)C(O)C(O)C4O)C3[C@@]3(COC(=O)/C=C/c4ccc(O)cc4)O[C@@H]23)C(O)C(O)C1O (stereo partly specified) was tested, and the GI50 was inactive: > 100 µM. With CC(C)(C)C(=O)Cc1cc2c(cc1C(=O)O)S(=O)(=O)NC(C(C)(C)C)=C2 the GI50 was inactive: > 100 µM. For COc1c(Sc2ccccc2)cc(Sc2ccccc2)c2cccnc12, the GI50 was inactive: 48.6 µM. Cc1c(OC(C)C(=O)O)ccc2c(-c3ccccc3)cc(=O)oc12 (stereo unspecified) was tested, and the GI50 was inactive: > 100 µM. With COC(=O)c1ccc(NCC2=CC(=O)C=CC2=O)cc1 the GI50 was inactive: 17.1 µM. For O=C1C2=Cc3ccccc3CCN2c2ccccc21, the GI50 was inactive: > 64.3 µM. With CC12CN(CC[N+](C)(C)C)CC1(C)C1CCC2O1 (stereo unspecified) the GI50 was inactive: > 100 µM. For O=C(c1cc2c(c3ccccc13)NCCN=C2C(F)(F)F)C(F)(F)F, the GI50 was inactive: 32.5 µM. For Cc1ccc(C2SCC(=O)N2NC(=O)c2ccncc2)s1 (stereo unspecified), the GI50 was inactive: > 100 µM. With Cc1nn(C)c(=O)c2nn(-c3ccccc3)c(C)c12 the GI50 was inactive: > 100 µM. With CC(CN(C)C)C(O)(c1ccccc1)c1ccccc1 (stereo unspecified) the GI50 was inactive: > 100 µM. In the case of CN[C@@H](C)[C@H](OP(=O)(O)OC1[C@@H](O)[C@H](O)C(O)[C@H](O)[C@@H]1O)c1ccccc1 (stereo partly specified), the GI50 is reported as inactive: > 100 µM. In the case of CCCCN1C(=O)c2c(Br)sc(Br)c2C1=O, the GI50 is reported as inactive: 38.3 µM. With CC[C@H]1CC(=O)c2c(cc3c(c2O)C(=O)c2ccccc2C3=O)[C@@]1(C#N)C(=O)OC(C)(C)C the GI50 was inactive: 3.8 µM. In the case of CC12CP(=O)(c3ccccc3)CC1C2(Cl)Cl (stereo unspecified), the GI50 is reported as inactive: > 100 µM. With O=C(O)CCC1COc2ccccc2O1 (stereo unspecified) the GI50 was inactive: > 10 µM. CCOC(=O)N[C@@H]1C2CC(=O)C(O2)[C@@H]1OC (stereo partly specified) was tested, and the GI50 was inactive: > 100 µM. Oc1ccc2ccccc2c1/N=N/c1ccc(F)cc1 was tested, and the GI50 was inactive: > 100 µM. With CCOC(=O)C1C(NC(N)=O)N(Cc2ccccc2)C(=O)N1Cc1ccccc1 (stereo unspecified) the GI50 was inactive: > 100 µM. With CN(C)CCCNCc1cccc2ccccc12 the GI50 was inactive: > 100 µM. CC(=O)OCC1OC(SC2=NC(=O)/C(=C/c3ccccc3)S2)C(OC(C)=O)C(OC(C)=O)C1OC(C)=O (stereo unspecified) was tested, and the GI50 was inactive: 43.7 µM. Cc1c2c(cc3c1C(=O)C(=O)C1=C3OC[C@@H]1C)C(C)(C)CCC2 was tested, and the GI50 was inactive: 14.6 µM. With COc1cc(/C=C\c2ccc(O)cc2)cc(OC)c1OC the GI50 was inactive: > 100 µM. For Nc1ncnc2c1cnn2Cc1ccc(Cl)cc1, the GI50 was inactive: > 100 µM. In the case of COc1ccc(-c2nnc3n(C)c4ccccc4n3c2=O)cc1, the GI50 is reported as inactive: > 100 µM. With COC(=O)c1c(CC(Cc2ccc3c(c2)CCCC3)C(=O)OC)ccc2c1CCCC2 (stereo unspecified) the GI50 was inactive: > 100 µM. In the case of CCOC(=O)C(NNS(=O)(=O)c1ccc(C)cc1)S(=O)(=O)C(F)(F)C(F)(F)C(F)(F)C(F)(F)F (stereo unspecified), the GI50 is reported as inactive: 19.3 µM. With CC12CCC(=O)[C@@]1(C)CCCC2=O (stereo partly specified) the GI50 was inactive: 81.1 µM. Cn1nc2c(c1N)Cc1c(nn(C)c1N)-c1ccccc1-2 was tested, and the GI50 was inactive: > 100 µM. Cc1ccc(/C=C2\N=C(N3CCCCC3)NC2=O)cc1 was tested, and the GI50 was inactive: > 100 µM. With COc1cc(/C=C2\N=C(c3ccccc3)N(c3nc4c(OC)ccc(OC)c4s3)C2=O)cc(OC)c1OC the GI50 was inactive: > 100 µM. O=C(Nc1nnc(-c2ccc(Cl)cc2)o1)C(SC(=S)N1CCOCC1)c1ccccc1 (stereo unspecified) was tested, and the GI50 was inactive: 13 µM. For O=C(CC1(O)CCCCC1)OC1CCCC1, the GI50 was inactive: > 100 µM. In the case of CCC1CN2CCc3cc(OC)c(OC)cc3C2CC1CC1c2cc(OC)c(OC)cc2CCN1C(=O)C(N)Cc1ccccc1.[O-][Cl+3]([O-])([O-])O (stereo unspecified), the GI50 is reported as inactive: 1.75 µM. In the case of S=C1ON=C(c2ccccc2)/C1=C/Nc1ccccc1, the GI50 is reported as inactive: > 100 µM. With C[C@]12CCC(=O)C=C1CC[C@@H]1[C@@H]2CC[C@]2(C)C(=O)[C@H](n3ccnc3)C[C@@H]12 the GI50 was inactive: > 100 µM. In the case of COc1ccc2nc3c([N+](=O)[O-])ccc(NCCCN(C)C)c3c(N)c2c1, the GI50 is reported as inactive: 1.39 µM. C=C(CCC(C)C1CCC2C3=C(C(=O)CC21C)C1(C)CCC(=O)[C@@H](C)C1CC3=O)C(C)C(=O)O (stereo partly specified) was tested, and the GI50 was inactive: > 100 µM. O=C(O/C(=C(/N=N/c1ccccc1)c1ccccc1)c1ccccc1)c1ccccc1 was tested, and the GI50 was inactive: > 100 µM. COC(=O)C(=O)C(C(=O)C=C(C)C)C(=O)C(=O)Nc1cc(C(F)(F)F)ccc1Cl (stereo unspecified) was tested, and the GI50 was inactive: > 100 µM.

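Compound exposure: 48 hours, 5 concentrations, 96-well plates. GI50 is the concentration that inhibits growth by half.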 Active and inactive are the calls of the source. Rule as the data show it: active = GI50 up to about 1.1 µM and inactive = higher. Square brackets hold non-standard residues; d marks the D form. Peptide text beside a SMILES is read from it. * marks the point of attachment. ξ: configuration not given here. ξD = NC(CC(=O)O)C(=O)O; Ac3c = NC1(C(=O)O)CC1; Boc = CC(C)(C)OC(=O)*; OBn = c1ccc(CO*)cc1
